Source: ChEMBL document CHEMBL4888484, “Replenishing the malaria drug discovery pipeline: Screening and hit evaluation of the MMV Hit Generation Library 1 (HGL1) against asexual blood stage Plasmodium falciparum ,using a nano luciferase reporter read-out” (2022)
Screen size: about 150,000 compounds; about 540 (0.36%) showed an effect of 50% or more. This is one part of the list.

tested on: Plasmodium falciparum; assay: Primary screen in NF54 nanoGlo assay, in single point, at 2uM, 72h; a lower Z score goes with more inhibition; assay type: functional, Erythrocyte; details: timepoint 72 hour

| Structure (SMILES) | % Inhibition | Z score |
| --- | --- | --- |
| Cc1ncc(CCNCc2cc(F)cc(F)c2)s1 | 8% | -0.93 |
| CC(C)[C@H](CNC(=O)N1CCC2(CCCC2)C1)c1ccnn1C | -13% | 1.72 |
| CCc1ccccc1S(=O)(=O)NCc1oc(C)nc1C | 16% | -1.84 |
| Cc1c(F)cccc1CN1C[C@@H](C(=O)O)C[C@H](C(=O)Nc2ccc(F)cc2)C1 | 13% | -1.77 |
| CC1(C)NC(=O)N(CC(=O)N2CCC[C@H]2c2ccc3c(c2)OCCCO3)C1=O | -13% | 1.7 |
| C[C@@H](CC1CN(C(=O)OC(C)(C)C)C1)NC(=O)c1ncccc1F | -10% | 1.31 |
| CC(Cc1ccccc1Cl)C(=O)NCC1CCC2(CCOCC2)C1O (stereo not drawn) | 2% | -0.26 |
| OCc1ccc2c(c1)CN(c1ncnc3[nH]cnc13)CCO2 | -6% | 0.58 |
| O=C(Cn1c(=O)c2nncn2c2ccccc21)Nc1ccccc1F | -5% | 0.52 |
| Cc1csc(NC(=O)Nc2cccs2)n1 | 7% | -0.94 |
| c1ccc(CNc2ccc3nnnn3n2)nc1 | -15% | 2.07 |
| CC[C@@H](CCO)NCc1ccc(Cl)cc1F | -15% | 1.9 |
| CC1(C)OCC2CC21NC(=O)Nc1ccc(F)c(C2CC2)c1 (stereo not drawn) | -5% | 0.47 |
| CCS(=O)(=O)N1CCN(c2nc3ccccc3c3nnc(-c4ccccc4C)n23)CC1 | -2% | 0.25 |
| C[C@@H](C(=O)N1CCC(Cc2ncc[nH]2)CC1)N(C)CC(F)(F)F | -10% | 1.38 |
| Cc1cc(N2CCN(C)[C@]3(CCC(=O)N(C)CC3)C2)nc(-c2ccccc2)n1 | 1% | -0.1 |
| CCOC(=O)CNC(=O)[C@H]1CC(=O)N(CCc2c[nH]c3ccc(F)cc23)C1 | -7% | 1.37 |
| O=C(COc1ccc(Cl)cc1Br)NC(=O)NC1CCCC1 | 7% | -1.14 |
| C[C@H]1CN(Cc2nc(-c3cccs3)no2)CC(C)(C)O1 | 4% | -0.78 |
| Cc1nc2oc(-c3ccccc3)nc2cc1N | -15% | 1.7 |
| O=C1c2ccccc2-c2nc(-c3ccccc3)cc3cccc1c23 | -12% | 1.38 |
| CC(C)c1nc(C(=O)NCCn2ncnn2)cs1 | -2% | 0.33 |
| Cc1ccc(N2CCN(c3nc4c(c(N5CCOCC5)n3)CN(S(=O)(=O)c3ccccc3)CC4)CC2)cc1C | -1% | 0.17 |
| CCOc1ccccc1CCN=C(N(C)C)N(C)C | -1% | 0.1 |
| O=C(NCc1c[nH]c2ccccc12)C1CCCC1 | 0% | -0.05 |
| Cn1cc(CNCc2ccc(N3CCCC3=O)cc2)cn1 | -9% | 0.97 |
| COC(=O)CN1CCN(C(=O)c2cnc3ccccc3n2)CC1=O | -6% | 0.59 |

| Structure (SMILES) | % Inhibition | Z score |
| --- | --- | --- |
| c1cncc(-c2nnc3n2CCCC[C@H]3C2CCOCC2)c1 | -8% | 1.6 |
| CCCN1C(=O)c2c(C(=O)NCCc3ccc(OC)c(OC)c3)ncn2C[C@@]1(C)C(=O)NC1CCCC1 | -17% | 3.2 |
| Cc1ccc(Oc2c(CN(Cc3ccco3)C[C@H](O)COC(C)C)c(-c3ccccc3)nn2C)cc1 | 10% | -1.3 |
| C[C@@H](c1cnn(C)c1)n1ccnc1-c1ccccc1-c1ccco1 | -7% | 1.01 |
| O=C(Nc1ccc(Oc2cccc3cccnc23)cc1)c1ccc(O)nc1 | -3% | 0.42 |
| CC1=C(C(=O)Nc2ccccc2)[C@H](c2ccc(C)cc2)NC(Nc2nc3ccccc3o2)=N1 | -8% | 1.11 |
| Cc1nn(C[C@@H](O)COCc2ccccc2)cc1Br | 34% | -3.87 |
| O=C1N[C@H](C(=O)N2CCc3c(CN4CCCC4)cccc32)CO1 | -5% | 0.66 |
| CCNC(=O)[C@@H]1CCCN1C(=O)Nc1cccnc1Oc1ccc(F)cc1 | -3% | 0.58 |
| CCN(CC)c1ccc(C(=O)N[C@@H](C)c2ccc(F)cc2F)cn1 | -14% | 2.37 |
| CC(=O)c1ccc(O[C@H]2CCN(C3CC3)C2=O)cc1 | -14% | 1.44 |
| C[C@H]1CN(c2nnc(-c3ccccc3)c(=O)[nH]2)CCO1 | 8% | -1.02 |
| CN(Cc1ccc2cc(O)ccc2c1)C[C@H]1CCCCO1 | 8% | -0.87 |
| CCN(CC)c1ccc(C(=O)C(F)(F)F)c(O)c1 | 32% | -4.18 |
| O=C1CC(C(=O)N2CC3CCC2C3)CN1c1nccs1 (stereo not drawn) | 30% | -3.4 |
| Cc1cc(N2CCN(c3ncnc4[nH]ncc34)CC2)nc(C(C)C)n1 | -7% | 1.24 |
| O=C(CN1CCCC1C(=O)O)NC(c1ccc(F)cc1)C1CCCC1 (stereo not drawn) | -8% | 1.15 |
| CC(C)c1nccc(C(=O)N[C@H]2CN(S(C)(=O)=O)C[C@@H]2C2CC2)n1 | 2% | -0.36 |
| COc1cccc(NC(=O)C2[C@H]3C=C[C@@]4(O3)C(C(=O)NC3CCCCC3C)N(Cc3ccccc3F)C(=O)[C@@H]24)c1 (stereo partly drawn) | 5% | -0.82 |
| CCc1ccc(CN2CCC[C@H](CNC(=O)c3ccc[nH]3)C2)nc1 | -4% | 0.44 |
| CCn1ncc(NC(=O)Cn2ccc(C(=O)OC)n2)n1 | -6% | 1.26 |
| Cc1ccc(F)cc1NC(=O)c1nn(-c2ccc(F)cc2)c2ccccc2c1=O | 5% | -0.68 |
| CCN(CC)C(=O)COc1cccc(Br)c1 | -10% | 1.27 |
| O=S(=O)(c1ccc(OCC(O)CN2CCCC2)cc1)c1ccc(OCC(O)CN2CCCC2)cc1 (stereo not drawn) | 7% | -0.6 |
| Cn1cnc(CNC(=O)c2cc(Cl)cc(F)c2N)n1 | -4% | 0.32 |
| O=C(OCCc1cnccn1)c1ccc(N2CCCC2)nc1 | -3% | 0.38 |
| CCN(C(=O)[C@@H]1CCC(=O)N1S(=O)(=O)c1ccccc1)c1ccc(OC)cc1 | -19% | 2.64 |
